Data from patent US20250289788A1, “HALOALKYL SULFONANILIDE COMPOUND AND HERBICIDE CONTAINING THE SAME” (SDS BIOTECH K.K., priority 2022, published 2025).
Some entries share one result that the patent states for a list of compounds. At least one compound was matched to its structure with a doubt left.

How the values were obtained:
Test in all cases: Test Example 1: herbicidal effect test using paddy field flooding treatment
Type in all cases: in vivo
Details in all cases: water surface application, 21 days after treatment
[1] = system: Schoenoplectiella juncoides (SJ)
Experimental: <Test Example 1> Herbicidal Effect Test Using Paddy Field Flooding Treatment
After each 40-cm^2 plastic cup was loaded with puddled paddy field soil, seeds of each of the following species were sown and grown in a greenhouse: Echinochloa crus-galli var. oryzicola (EC), Schoenoplectiella juncoides (SJ), Monochoria vaginalis (MV), or Ammannia multiflora (AM). After plants were grown for 14 days, water was flooded to a depth of 3 cm, and a 10% wettable powder, which had been adjusted according to Formulation Example 1, was diluted with distilled water and applied dropwise to the water surface. The amount applied was 1000, 500, 250, 125, 63, 31, or 16 g of active ingredient per hectare. The test was conducted in two series. Herbicidal efficacy (degree (%) of suppression of growth of terrestrial part: 100 (complete death) to 0 (no action)) was investigated at 21 days after the treatment.

Ammannia multiflora (AM) = system: Ammannia multiflora (AM)
[2] = system: Monochoria vaginalis (MV)

Question: Which results are given for `COc1ccc(F)c2c1CCN(Cc1ccccc1NS(=O)(=O)C(F)(F)F)C2=O` [Compound 3-68]?
Answer: herbicidal efficacy (degree (%) of suppression of growth of terrestrial part) ([1]; dose 500 g a.i./ha): ≥ 80%; herbicidal efficacy (degree (%) of suppression of growth of terrestrial part) (Ammannia multiflora (AM); dose 63 g a.i./ha): ≥ 80%

Question: `CCOC(=O)N(c1ccccc1Cn1ccc2ccccc2c1=O)S(=O)(=O)C(F)(F)F` [Compound 7-17] was tested. Which “herbicidal efficacy (degree (%) of suppression of growth of terrestrial part)” value ([1]; dose 1000 g a.i./ha) did it give?
Answer: ≥ 80%

Question: What about the “herbicidal efficacy (degree (%) of suppression of growth of terrestrial part)” value (Ammannia multiflora (AM); dose 1000 g a.i./ha) of the same compound?
Answer: ≥ 80%

Question: With `C#CCOc1cccc2c1C(=O)N(Cc1ccccc1N(S(=O)(=O)C(F)(F)F)S(=O)(=O)C(F)(F)F)CC2` [Compound 3-251] as the compound, how does the “herbicidal efficacy (degree (%) of suppression of growth of terrestrial part)” value ([1]; dose 250 g a.i./ha) read?
Answer: ≥ 80%

Question: And the “herbicidal efficacy (degree (%) of suppression of growth of terrestrial part)” value (Ammannia multiflora (AM); dose 250 g a.i./ha)?
Answer: ≥ 80%

Question: How did the “herbicidal efficacy (degree (%) of suppression of growth of terrestrial part)” value ([1]; dose 250 g a.i./ha) turn out when `COC(=O)c1cccc2c1C(=O)N(Cc1ccccc1NS(=O)(=O)C(F)(F)F)CC2` [Compound 3-18] was run?
Answer: ≥ 80%

Question: What about the “herbicidal efficacy (degree (%) of suppression of growth of terrestrial part)” value (Ammannia multiflora (AM); dose 250 g a.i./ha) of the same compound?
Answer: ≥ 80%

Question: Which “herbicidal efficacy (degree (%) of suppression of growth of terrestrial part)” value ([1]; dose 1000 g a.i./ha) does the source give for `CCOC(=O)N(c1ccccc1CN1C(=O)CCc2ccccc21)S(=O)(=O)C(F)(F)F` [Compound 9-6] here?
Answer: ≥ 80%

Question: `CCOC(=O)N(c1ccccc1CN1C(=O)c2cc(F)ccc21)S(=O)(=O)C(F)(F)F` [Compound 1-10] was tested. Which “herbicidal efficacy (degree (%) of suppression of growth of terrestrial part)” value ([1]; dose 500 g a.i./ha) did it give?
Answer: ≥ 80%

Question: What about the “herbicidal efficacy (degree (%) of suppression of growth of terrestrial part)” value (Ammannia multiflora (AM); dose 250 g a.i./ha) of the same compound?
Answer: ≥ 80%

Question: How did the “herbicidal efficacy (degree (%) of suppression of growth of terrestrial part)” value ([1]; dose 125 g a.i./ha) turn out when `CS(=O)(=O)Oc1cccc2c1CCN(Cc1ccccc1NS(=O)(=O)C(F)(F)F)C2=O` [Compound 3-48] was run?
Answer: ≥ 80%

Question: What about the “herbicidal efficacy (degree (%) of suppression of growth of terrestrial part)” value (Ammannia multiflora (AM); dose 31 g a.i./ha) of the same compound?
Answer: ≥ 80%

Question: What does the source list for `O=C1c2c(F)ccc(C(F)(F)F)c2CCN1Cc1ccccc1NS(=O)(=O)C(F)(F)F` [Compound 3-67]?
Answer: herbicidal efficacy (degree (%) of suppression of growth of terrestrial part) ([1]; dose 250 g a.i./ha): ≥ 80%; herbicidal efficacy (degree (%) of suppression of growth of terrestrial part) (Ammannia multiflora (AM); dose 250 g a.i./ha): ≥ 80%

Question: How did the “herbicidal efficacy (degree (%) of suppression of growth of terrestrial part)” value ([1]; dose 250 g a.i./ha) turn out when `COC(=O)N(c1ccccc1CN1CCc2c(F)ccc(F)c2C1=O)S(=O)(=O)C(F)(F)F` [Compound 3-138] was run?
Answer: ≥ 80%

Question: What about the “herbicidal efficacy (degree (%) of suppression of growth of terrestrial part)” value (Ammannia multiflora (AM); dose 125 g a.i./ha) of the same compound?
Answer: ≥ 80%

Question: Which results are given for `CCOC(=O)N(c1ccccc1CN1C(=O)c2ccc(F)cc21)S(=O)(=O)C(F)(F)F` [Compound 1-11]?
Answer: herbicidal efficacy (degree (%) of suppression of growth of terrestrial part) ([1]; dose 500 g a.i./ha): ≥ 80%; herbicidal efficacy (degree (%) of suppression of growth of terrestrial part) (Ammannia multiflora (AM); dose 125 g a.i./ha): ≥ 80%

Question: `CCOC(=O)N(c1ccccc1CN1CCc2cccc(C#N)c2C1=O)S(=O)(=O)C(F)(F)F` [Compound 3-142] was tested. Which “herbicidal efficacy (degree (%) of suppression of growth of terrestrial part)” value ([1]; dose 125 g a.i./ha) did it give?
Answer: ≥ 80%

Question: What about the “herbicidal efficacy (degree (%) of suppression of growth of terrestrial part)” value (Ammannia multiflora (AM); dose 31 g a.i./ha) of the same compound?
Answer: ≥ 80%

Question: Which “herbicidal efficacy (degree (%) of suppression of growth of terrestrial part)” value ([1]; dose 250 g a.i./ha) does the source give for `CN(C)c1cccc2c1C(=O)N(Cc1ccccc1NS(=O)(=O)C(F)(F)F)CC2` [Compound 3-17] here?
Answer: ≥ 80%

Question: How did the “herbicidal efficacy (degree (%) of suppression of growth of terrestrial part)” value ([1]; dose 250 g a.i./ha) turn out when `O=C1c2c(cccc2C2CC2)CCN1Cc1ccccc1NS(=O)(=O)C(F)(F)F` [Compound 3-7] was run?
Answer: ≥ 80%

Question: What about the “herbicidal efficacy (degree (%) of suppression of growth of terrestrial part)” value (Ammannia multiflora (AM); dose 63 g a.i./ha) of the same compound?
Answer: ≥ 80%

Question: What does the source list for `CCCCCCOC(=O)N(c1ccccc1CN1CCc2c(F)ccc(F)c2C1=O)S(=O)(=O)C(F)(F)F` [Compound 3-168]?
Answer: herbicidal efficacy (degree (%) of suppression of growth of terrestrial part) ([1]; dose 250 g a.i./ha): ≥ 80%; herbicidal efficacy (degree (%) of suppression of growth of terrestrial part) (Ammannia multiflora (AM); dose 63 g a.i./ha): ≥ 80%

Question: How did the “herbicidal efficacy (degree (%) of suppression of growth of terrestrial part)” value ([1]; dose 500 g a.i./ha) turn out when `CN(c1ccccc1CN1CCc2c(F)ccc(F)c2C1=O)S(=O)(=O)C(F)(F)F` [Compound 3-90] was run?
Answer: ≥ 80%

Question: With `CC(=O)Oc1cccc2c1C(=O)N(Cc1ccccc1NS(=O)(=O)C(F)(F)F)CC2` [Compound 3-13] as the compound, how does the “herbicidal efficacy (degree (%) of suppression of growth of terrestrial part)” value ([2]; dose 250 g a.i./ha) read?
Answer: ≥ 80%

Question: What about the “herbicidal efficacy (degree (%) of suppression of growth of terrestrial part)” value (Ammannia multiflora (AM); dose 125 g a.i./ha) of the same compound?
Answer: ≥ 80%

Question: For `CCOC(=O)N(c1ccccc1CN1CCc2c(Br)ccc(F)c2C1=O)S(=O)(=O)C(F)(F)F` [Compound 3-150], which “herbicidal efficacy (degree (%) of suppression of growth of terrestrial part)” value ([2]; dose 500 g a.i./ha) is on record?
Answer: ≥ 80%

Question: What about the “herbicidal efficacy (degree (%) of suppression of growth of terrestrial part)” value (Ammannia multiflora (AM); dose 250 g a.i./ha) of the same compound?
Answer: ≥ 80%

Question: What does the source list for `Cc1oc(=O)oc1COC(=O)N(c1ccccc1CN1CCc2c(F)ccc(F)c2C1=O)S(=O)(=O)C(F)(F)F` [Compound 3-225]?
Answer: herbicidal efficacy (degree (%) of suppression of growth of terrestrial part) ([2]; dose 63 g a.i./ha): ≥ 80%; herbicidal efficacy (degree (%) of suppression of growth of terrestrial part) (Ammannia multiflora (AM); dose 16 g a.i./ha): ≥ 80%

Question: `O=C1c2c(F)ccc(F)c2CCN1Cc1ccccc1N(S(=O)(=O)C1CC1)S(=O)(=O)C(F)(F)F` [Compound 3-253] was tested. Which “herbicidal efficacy (degree (%) of suppression of growth of terrestrial part)” value ([1]; dose 500 g a.i./ha) did it give?
Answer: ≥ 80%

Question: And the “herbicidal efficacy (degree (%) of suppression of growth of terrestrial part)” value (Ammannia multiflora (AM); dose 250 g a.i./ha)?
Answer: ≥ 80%
